Reference: paper PMC4336329 (PLoS ONE, 2015)
The campaign covered roughly 310,000 compounds. About 14,000 (4.5%) showed an effect of 50% or more. The effect is printed as a negative number. This is one part of the list.

Each molecule was assayed against human ether-à-go-go-related gene (hERG) potassium channel (human, UniProt Q12809) (assay: primary screen, population patch clamp on CHO cells stably expressing hERG).
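Further: peak tail current of the secondary pulse compared with the same well before compound.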

Sequence of human ether-à-go-go-related gene (hERG) potassium channel (Q12809 whole entry, looked up): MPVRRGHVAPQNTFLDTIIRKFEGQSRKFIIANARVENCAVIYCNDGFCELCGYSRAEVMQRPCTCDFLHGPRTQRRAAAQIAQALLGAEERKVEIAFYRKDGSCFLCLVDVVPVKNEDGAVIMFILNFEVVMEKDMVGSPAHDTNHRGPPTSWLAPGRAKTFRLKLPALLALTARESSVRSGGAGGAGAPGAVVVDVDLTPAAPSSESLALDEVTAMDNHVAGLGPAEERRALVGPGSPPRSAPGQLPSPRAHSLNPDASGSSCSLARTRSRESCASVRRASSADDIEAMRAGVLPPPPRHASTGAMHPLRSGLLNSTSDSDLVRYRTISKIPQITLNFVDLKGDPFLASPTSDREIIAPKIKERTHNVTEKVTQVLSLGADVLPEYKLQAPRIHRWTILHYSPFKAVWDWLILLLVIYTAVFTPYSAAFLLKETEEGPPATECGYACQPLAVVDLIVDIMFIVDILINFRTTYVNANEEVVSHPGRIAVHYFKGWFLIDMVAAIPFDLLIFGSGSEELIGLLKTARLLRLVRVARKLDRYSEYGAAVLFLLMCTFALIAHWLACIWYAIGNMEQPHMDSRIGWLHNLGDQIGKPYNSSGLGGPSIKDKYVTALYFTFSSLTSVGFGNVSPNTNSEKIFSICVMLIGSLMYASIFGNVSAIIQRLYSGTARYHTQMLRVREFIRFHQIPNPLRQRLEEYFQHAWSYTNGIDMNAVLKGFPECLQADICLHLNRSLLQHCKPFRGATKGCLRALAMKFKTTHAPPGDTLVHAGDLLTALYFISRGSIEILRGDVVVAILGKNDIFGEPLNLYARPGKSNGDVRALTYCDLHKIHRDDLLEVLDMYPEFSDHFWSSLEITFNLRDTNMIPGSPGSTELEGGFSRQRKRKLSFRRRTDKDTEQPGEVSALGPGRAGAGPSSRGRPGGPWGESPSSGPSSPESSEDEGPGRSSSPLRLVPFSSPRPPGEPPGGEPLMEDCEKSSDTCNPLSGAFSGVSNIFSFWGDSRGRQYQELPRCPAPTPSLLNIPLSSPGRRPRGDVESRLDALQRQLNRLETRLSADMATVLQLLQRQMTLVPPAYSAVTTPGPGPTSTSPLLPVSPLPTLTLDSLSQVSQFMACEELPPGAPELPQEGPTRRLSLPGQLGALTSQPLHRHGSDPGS

Compound | hERG current change (%, negative = inhibition) at 10uM [%]
Cc1nc(NC(=O)/C=C/c2ccccc2)sc1C(=O)Nc1ccc(Cl)cc1 | 5.27
Cc1ccc(S(=O)(=O)N2CCCCC2)cc1NC(=O)CSc1ncn[nH]1 | 12
COc1ccc(-c2nn(-c3ccccc3)cc2C(=O)Nc2ccc(C(=O)O)cc2)cc1 | 6.82
CC(C)(C)n1nnnc1CN(Cc1ccc(F)cc1)Cc1ccco1 | -7.57
CCSc1ccc2nnc(-c3cccs3)n2n1 | -34
Cc1[nH][nH]c(=O)c1C(c1ccc(N(C)C)c(Br)c1)c1c(C)[nH][nH]c1=O | 15.2
COc1ccc(C(=O)CC(=O)C(=O)Nc2ccccc2OC)cc1 | 0.79
COc1ccc(NC(=O)c2cnn(-c3ccccc3)c2C)c(OC)c1 | 8.67
O=C(O)c1cccnc1NC1CCCC1 | 0.89
Cc1ccc(OCCOc2ccc(Cl)cc2Cl)c([N+](=O)[O-])n1 | -0.813
O=C(O)c1ccc(-n2nncc2-c2ccccc2)cc1 | 8.58
COc1ccc(CCNC(=O)c2ccccc2N(C)S(=O)(=O)c2ccccc2)cc1 | -4.4
CCCC[N+](C)(C)CCC(=O)NC(C)(C)CS(=O)(=O)[O-] | -20.1
CCOC(=O)c1c(C)[nH]c(C(=O)COC(=O)CCC2CCCC2)c1C | -3.26
COc1ccc(NC(=O)C2OCCc3ccccc32)c(OC)c1 (stereo not shown) | 9.36
C=CCn1c(SCC(=O)Nc2nnc(C)s2)nnc1C1CC1 | 16.5
CCCNC(=O)c1ccc(N2CCC3(CC2)CC(c2ccccc2)=NO3)c([N+](=O)[O-])c1 | -53
Cc1cc(NC(=O)c2cc(-c3ccccn3)nc3ccccc23)no1 | -3.66
CN1CCN(S(=O)(=O)c2ccc(Cl)s2)CC1 | 7.75
O=C(COc1ccc(Nc2ccccc2)cc1)OCC(=O)N1CCCCC1 | 12.6
CSCCC1NC(=O)N(CC(=O)N2CCc3ccccc3C2)C1=O (stereo not shown) | -1.18
O=C(Nc1cnn(Cc2ccc(Cl)cc2Cl)c1)c1noc2c1CCCC2 | 5.22

Compound | hERG current change (%, negative = inhibition) at 10uM [%]
Cc1ccc(Cn2nc(C)c(NC(=O)c3noc4c3CCCCC4)c2C)cc1 | -25.1
CCS(=O)(=O)Nc1cccc(-c2ccc3nnc(C)n3n2)c1 | 12.8
Cc1cc(S(=O)(=O)Nc2ccc3c(c2)n(C)c(=O)n3C)ccc1F | -0.399
CCOC(=O)CNC(=O)c1sc2nc(C)cc(C)c2c1N | 15.4
COc1ccc(CCNC(=O)CSc2nnc(-c3ccccc3)c3ccccc23)cc1OC | -20
COC(=O)N/N=C/c1cc(C)n(-c2ccc(Br)cc2)c1C | -26.5
O=C1CSC(c2ccccc2)N1CC12CC3CC(CC(O)(C3)C1)C2 (stereo not shown) | -11.4
Cc1cnc(CN(C)C(=O)CC2C(=O)NCCN2Cc2cccc(F)c2F)[nH]1 (stereo not shown) | 19.2
CN(C(=O)CSc1nnc(-c2cccnc2)n1-c1ccccc1F)C1CCS(=O)(=O)C1 (stereo not shown) | 11.7
O=[N+]([O-])c1ccccc1S(=O)(=O)NCCSCc1ccco1 | -3.56
O=C(NC(=S)Nc1ccccc1Br)C1CC1 | 8.48
O=C(c1ccc(F)cc1)c1c[nH]c(C(=O)NCc2ccco2)c1 | -4.69
COc1ccc(C(=O)NNC(=O)COc2ccc(Cl)cc2)c(OC)c1 | 1.97
CC(CCc1ccccc1)NC(=O)c1cc2sccc2n1C (stereo not shown) | -5.35
CC1=CC2=NC(=O)/C(=C\c3cccn3CCOc3cc(C)ccc3C)C(=N)N2O1 | -6.02
O=C(Nc1nncs1)C1COc2ccccc2O1 (stereo not shown) | 19.9
COc1ccc(OC)c(S(=O)(=O)NCCC(C)C)c1 | 23.9
Cc1c(C(=O)N2CCC[C@H]2CO)oc2c(F)cccc12 | 13.3
CCN1C(=O)NC(=O)/C(=C\c2cn(CC(=O)O)c3ccccc23)C1=O | 15.2
CS(=O)(=O)c1cnc(-c2ccccc2)nc1-c1ccc(Cl)c(Cl)c1 | 21.7
COC(=O)C1=C(c2ccc(F)cc2F)C[C@@H]2CC[C@H]1N2C(=O)N1CCC(O)CC1 | 2.97
